Test results published in publication PMC9663306.
Changes are numbered by the printed parent chain. No constants are given. Whether binding was seen depends on the method and setting. Binding seen in cells or lysates may run through a third protein. Some entries that bind do so weakly or less than the wild type. For some of these results: Tags and fused reporters may be left off the sequences shown.

By UniProt entry, the sequences of proteins in these tests, tags left out.
UniProt Q8CJ61: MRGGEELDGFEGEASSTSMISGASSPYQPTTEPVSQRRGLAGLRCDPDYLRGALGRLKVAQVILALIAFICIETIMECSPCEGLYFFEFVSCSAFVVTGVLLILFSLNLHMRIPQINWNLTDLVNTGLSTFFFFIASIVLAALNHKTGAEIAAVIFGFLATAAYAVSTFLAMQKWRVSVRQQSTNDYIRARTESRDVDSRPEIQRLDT

Legend:
Assay in all cases: co-IP; anti-FLAG M2 agarose IP from 1% DDM lysates of ST2 cells retrovirally transduced with an SF-tagged receptor, immunoblot for endogenous proteins; cells unstimulated (SF-IL-17RC also after IL-17A 500 ng/ml for 15 min, unchanged)
[1] = molecular target: T1, SF-IL-17RC (murine IL-17RC with C-terminal 2xStrep-3xFlag tag), in ST2 cells (mouse) (UniProt Q8K4C2)
T1 sequence (chain, N-glycosylated (100 kDa and 150 kDa forms)): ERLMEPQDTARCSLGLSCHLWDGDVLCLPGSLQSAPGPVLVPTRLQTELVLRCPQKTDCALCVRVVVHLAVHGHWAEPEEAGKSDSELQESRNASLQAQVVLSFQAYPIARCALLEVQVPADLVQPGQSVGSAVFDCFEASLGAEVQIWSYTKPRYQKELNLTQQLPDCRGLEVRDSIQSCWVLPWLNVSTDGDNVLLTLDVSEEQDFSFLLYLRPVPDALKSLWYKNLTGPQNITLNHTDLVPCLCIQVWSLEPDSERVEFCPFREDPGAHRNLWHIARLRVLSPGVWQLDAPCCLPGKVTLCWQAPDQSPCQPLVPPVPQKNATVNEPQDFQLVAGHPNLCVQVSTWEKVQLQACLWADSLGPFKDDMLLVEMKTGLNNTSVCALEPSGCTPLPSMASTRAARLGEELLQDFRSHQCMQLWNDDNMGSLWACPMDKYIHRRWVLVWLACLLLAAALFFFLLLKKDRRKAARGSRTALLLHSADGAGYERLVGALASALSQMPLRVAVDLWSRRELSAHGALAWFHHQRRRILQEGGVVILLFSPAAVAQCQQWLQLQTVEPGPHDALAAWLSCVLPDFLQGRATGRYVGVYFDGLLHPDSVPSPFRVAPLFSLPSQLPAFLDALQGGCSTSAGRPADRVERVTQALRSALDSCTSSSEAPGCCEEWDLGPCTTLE

[2] = molecular target: T2, SF-IL-17RC^MutE (all nine putative N-glycosylation sites mutated) (mouse) (UniProt Q8K4C2)
T2 sequence (chain, fully deglycosylated form of 85 kDa): T1 sequence (chain, N-glycosylated (100 kDa and 150 kDa forms)) with N93Q, N161Q, N188Q, N228Q, N234Q, N238Q, N324Q, N380Q, N381Q

[3] = molecular target: T3, SF-IL-17RE (murine IL-17RE with C-terminal 2xStrep-3xFlag tag) (mouse) (UniProt Q8BH06)
T3 sequence: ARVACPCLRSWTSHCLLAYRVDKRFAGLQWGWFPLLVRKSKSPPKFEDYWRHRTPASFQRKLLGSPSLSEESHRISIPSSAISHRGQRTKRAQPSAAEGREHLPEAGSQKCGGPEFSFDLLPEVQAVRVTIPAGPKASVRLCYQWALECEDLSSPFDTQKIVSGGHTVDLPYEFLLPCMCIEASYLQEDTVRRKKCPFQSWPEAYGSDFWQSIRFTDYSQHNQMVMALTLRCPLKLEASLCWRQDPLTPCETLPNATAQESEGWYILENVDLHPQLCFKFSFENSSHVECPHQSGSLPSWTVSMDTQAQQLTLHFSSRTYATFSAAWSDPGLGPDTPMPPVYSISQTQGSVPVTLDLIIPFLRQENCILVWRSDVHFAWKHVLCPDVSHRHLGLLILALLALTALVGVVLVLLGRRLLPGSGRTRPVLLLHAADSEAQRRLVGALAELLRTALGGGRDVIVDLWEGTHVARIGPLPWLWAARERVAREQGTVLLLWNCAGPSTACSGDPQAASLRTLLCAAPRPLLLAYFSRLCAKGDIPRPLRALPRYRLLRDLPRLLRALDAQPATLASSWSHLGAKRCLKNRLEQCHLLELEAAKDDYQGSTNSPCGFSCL

[4] = molecular target: T4, SF-TNFR1 (murine TNF receptor 1 with C-terminal 2xStrep-3xFlag tag) (mouse) (UniProt P25118)
T4 sequence: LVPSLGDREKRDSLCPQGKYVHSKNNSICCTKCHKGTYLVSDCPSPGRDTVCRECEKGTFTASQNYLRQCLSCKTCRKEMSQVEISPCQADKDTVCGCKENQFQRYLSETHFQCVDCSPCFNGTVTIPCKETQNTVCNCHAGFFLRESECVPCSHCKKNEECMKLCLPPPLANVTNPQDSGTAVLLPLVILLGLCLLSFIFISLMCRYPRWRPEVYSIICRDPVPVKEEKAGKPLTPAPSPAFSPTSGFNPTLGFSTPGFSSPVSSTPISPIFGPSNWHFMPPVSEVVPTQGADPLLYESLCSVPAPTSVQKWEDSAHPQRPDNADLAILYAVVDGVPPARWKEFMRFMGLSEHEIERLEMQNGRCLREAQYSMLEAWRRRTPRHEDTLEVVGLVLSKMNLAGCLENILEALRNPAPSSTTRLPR

CMTM4 (endogenous, mouse ST2 cells) (from UniProt Q8CJ61 1-208)
binding [1]: binds | binding [2]: binds | binding [3]: no binding | binding [4]: no binding
